The other results are listed elsewhere or left out.
Tested on: HepG2
Assay: cytotoxicity call (relative viability < 0.9)
Settings: 10 µM

**Q.** Which cytotoxicity call does the source give for O=C(C[C@@H]1CC[C@H]2[C@@H](COC[C@@H](O)CN2C(=O)c2cnccn2)O1)N1CCN(c2ccccc2)CC1 here?
**A.** inactive

**Q.** CO[C@@H]1CN(C)C(=O)c2cc(NS(C)(=O)=O)ccc2OC[C@@H](C)N(C(=O)c2ccc3c(c2)OCO3)C[C@H]1C was tested. Which cytotoxicity call did it give?
**A.** inactive

**Q.** With C[C@@H]1CN([C@H](C)CO)C(=O)c2cc(C#CC3(O)CCCC3)cnc2O[C@H]1CN(C)S(=O)(=O)c1ccc(F)cc1 as the compound, how does the cytotoxicity call read?
**A.** inactive

**Q.** How did the cytotoxicity call turn out when C[C@@H]1CCCCO[C@H](CN(C)S(=O)(=O)c2ccc(F)cc2)[C@H](C)CN([C@H](C)CO)C(=O)c2cc(NS(=O)(=O)c3ccc(Cl)cc3)ccc2O1 was run?
**A.** inactive

**Q.** For C[C@@H](O)C#Cc1cnc2c(c1)C(=O)N([C@@H](C)CO)C[C@H](C)[C@H](CN(C)C(=O)Nc1ccc(C(F)(F)F)cc1)O2, which cytotoxicity call is on record?
**A.** inactive

**Q.** With CCCNC(=O)N1C[C@@H](O)COC[C@@H]2O[C@@H](CC(=O)N3CCOCC3)CC[C@H]21 as the compound, how does the cytotoxicity call read?
**A.** inactive

**Q.** How did the cytotoxicity call turn out when C[C@H]1CN([C@@H](C)CO)C(=O)c2cccc(NC(=O)Nc3ccccc3)c2O[C@@H]1CN(C)S(C)(=O)=O was run?
**A.** inactive

**Q.** With N[C@@H](C(=O)O)c1ccc(C(=O)O)c(O)c1 as the compound, how does the cytotoxicity call read?
**A.** inactive

**Q.** Cc1c(-c2ccc(C(N)=O)c3[nH]c4cc(C(C)(C)O)ccc4c23)cccc1-n1cnc2ccccc2c1=O was tested. Which cytotoxicity call did it give?
**A.** active

**Q.** C[C@@H]1CCCCO[C@H](CN(C)S(=O)(=O)c2ccc(Cl)cc2)[C@@H](C)CN([C@@H](C)CO)C(=O)c2cc(NC(=O)Nc3ccc4c(c3)OCO4)ccc2O1 was tested. Which cytotoxicity call did it give?
**A.** inactive

Tested on: S. aureus RN4220
Assay: growth inhibition call (relative growth <= 0.2)
Settings: 50 µM

**Q.** For COc1ccc(NC(=O)O[C@H]2[C@@H]3OC(=O)[C@@H](Cc4ccc5ccccc5c4)C/C=C/C[C@H](Cc4ccc5ccccc5c4)C(=O)O[C@H]3[C@@H](OC)O[C@@H]2CO)cc1, which growth inhibition call is on record?
**A.** inactive

**Q.** COCC(=O)Nc1ccc2c(c1)OC[C@@H](C)N(C(=O)Cc1ccccn1)C[C@H](C)[C@@H](OC)CN(C)C2=O was tested. Which growth inhibition call did it give?
**A.** inactive

**Q.** COCC#Cc1ccc2c(c1)O[C@H](CN(C)C(=O)C1CCOCC1)[C@H](C)CN([C@H](C)CO)S2(=O)=O was tested. Which growth inhibition call did it give?
**A.** inactive

**Q.** Which growth inhibition call does the source give for C[C@@H]1CN([C@@H](C)CO)C(=O)CCCn2cc(nn2)CO[C@@H]1CN(C)C(=O)Nc1ccc(N2CCN(C)CC2)cc1 here?
**A.** inactive

**Q.** With O=C(C[C@@H]1CC[C@@H](NC(=O)c2cccnc2)[C@H](CO)O1)NCCN1CCCCC1 as the compound, how does the growth inhibition call read?
**A.** inactive

**Q.** For Cc1noc(C)c1NC(=O)Nc1ccc2c(c1)C(=O)N([C@H](C)CO)C[C@@H](C)[C@@H](CN(C)Cc1ccc3c(c1)OCO3)OCCCC[C@H](C)O2, which growth inhibition call is on record?
**A.** inactive

**Q.** For Cc1ccc(S(=O)(=O)N(C)C[C@H]2Oc3c(NS(=O)(=O)c4ccccc4)cccc3C(=O)N([C@H](C)CO)C[C@@H]2C)cc1, which growth inhibition call is on record?
**A.** inactive

**Q.** Which growth inhibition call does the source give for C=CCn1c(=O)c2c(nc(NCCO)n2C)n(C)c1=O here?
**A.** inactive

**Q.** With COc1ccc(CN(C)C[C@@H]2OCCCC[C@@H](C)Oc3ccc(NC(=O)Nc4ccc5c(c4)OCO5)cc3C(=O)N([C@@H](C)CO)C[C@H]2C)cc1 as the compound, how does the growth inhibition call read?
**A.** inactive

**Q.** With CN(C)CCCCNC(=O)[C@H]1C[C@H]2C(=O)N[C@@H](Cc3ccccc3)C(=O)N2[C@H]1c1cccc(OCCO)c1 as the compound, how does the growth inhibition call read?
**A.** inactive

**Q.** How did the growth inhibition call turn out when OCc1ncc[nH]1 was run?
**A.** inactive

**Q.** O=C(O)CCCC[C@@H]1SC[C@@H]2NC(=O)N[C@@H]21 was tested. Which growth inhibition call did it give?
**A.** inactive

**Q.** CCCN(C)C[C@H]1OCCCC[C@@H](C)Oc2ccc(NC(=O)c3ccccc3)cc2C(=O)N([C@@H](C)CO)C[C@H]1C was tested. Which growth inhibition call did it give?
**A.** inactive

**Q.** O=C1O[C@@H](c2ccccc2)[C@@H](c2ccccc2)N2[C@@H](c3ccc(O)cc3)[C@]3(C(=O)Nc4ccc(C#CCCO)cc43)[C@@H](C(=O)NC[C@H](O)c3ccccc3)[C@H]12 was tested. Which growth inhibition call did it give?
**A.** inactive

**Q.** How did the growth inhibition call turn out when C[C@@H]1CN([C@@H](C)CO)C(=O)c2cc(NC(=O)Nc3cccc4ccccc34)ccc2O[C@@H](C)CCCCO[C@@H]1CN(C)Cc1ccc2c(c1)OCO2 was run?
**A.** inactive

**Q.** For O=C1OC2(c3ccc(O)cc3Oc3cc(O)ccc32)c2ccccc21, which growth inhibition call is on record?
**A.** inactive

**Q.** C[C@@H]1COCCC(=O)N1 was tested. Which growth inhibition call did it give?
**A.** inactive

**Q.** With COc1ccc(NC(=O)N(C)C[C@@H]2Oc3ccc(NC(=O)CCCN(C)C)cc3C(=O)N([C@@H](C)CO)C[C@H]2C)cc1 as the compound, how does the growth inhibition call read?
**A.** inactive

**Q.** Which growth inhibition call does the source give for C[C@H](CO)N1C[C@H](C)[C@H](CN(C)C(=O)C2CCCCC2)OCCCC[C@H](C)Oc2ccc(NS(=O)(=O)c3ccccc3)cc2C1=O here?
**A.** inactive

**Q.** For C[C@H](CO)N1C[C@H](C)[C@H](CN(C)Cc2ccc3c(c2)OCO3)Oc2c(NC(=O)c3cnccn3)cccc2C1=O, which growth inhibition call is on record?
**A.** inactive

**Q.** With C=CCC[C@@H](Cc1ccc(F)cc1)C(=O)O[C@@H](CNC(=O)[C@@H](CC=C)CC(=O)N[C@@H](CO)Cc1ccccc1)c1ccccc1 as the compound, how does the growth inhibition call read?
**A.** inactive

**Q.** C[C@H](CO)N1C[C@H](C)[C@H](CN(C)S(=O)(=O)c2cn(C)cn2)OCc2ccccc2-c2ccccc2C1=O was tested. Which growth inhibition call did it give?
**A.** inactive

**Q.** Which growth inhibition call does the source give for C[C@@H]1CCCCO[C@H](CN(C)S(C)(=O)=O)[C@@H](C)CN([C@@H](C)CO)C(=O)c2cc(NC(=O)c3ccncc3)ccc2O1 here?
**A.** inactive

**Q.** N#C[C@@H]1C(=O)NC(=O)[C@@H](C#N)C12CCCC2 was tested. Which growth inhibition call did it give?
**A.** inactive

**Q.** COc1ccc(NC(=O)N(C)C[C@@H]2OCCCC[C@H](C)Oc3ccc(NC(=O)Nc4ccccc4)cc3C(=O)N([C@H](C)CO)C[C@@H]2C)cc1 was tested. Which growth inhibition call did it give?
**A.** inactive

**Q.** With COc1ccc(S(=O)(=O)Nc2ccc3c(c2)C(=O)N([C@@H](C)CO)C[C@@H](C)[C@@H](CN(C)Cc2ccccc2)OCCCC[C@@H](C)O3)cc1 as the compound, how does the growth inhibition call read?
**A.** inactive

**Q.** With C[C@H](CO)N1C[C@H](C)[C@@H](CN(C)Cc2ccc(-c3ccccc3)cc2)Oc2ccc(NS(=O)(=O)c3ccc(F)cc3)cc2CC1=O as the compound, how does the growth inhibition call read?
**A.** inactive

**Q.** C[C@@H]1CN([C@H](C)CO)C(=O)c2cccc(NC(=O)NC3CCCCC3)c2O[C@@H]1CN(C)S(=O)(=O)c1cn(C)cn1 was tested. Which growth inhibition call did it give?
**A.** inactive

**Q.** Which growth inhibition call does the source give for C[C@@H]1CN([C@H](C)CO)C(=O)c2cc(NC(=O)c3ccncc3)ccc2O[C@H]1CN(C)C(=O)Nc1ccc2c(c1)OCO2 here?
**A.** inactive

**Q.** How did the growth inhibition call turn out when C[C@@H]1CCCCO[C@H](CN(C)C(=O)c2ccccc2)[C@H](C)CN([C@@H](C)CO)C(=O)c2cc(NC(=O)Nc3ccc4c(c3)OCO4)ccc2O1 was run?
**A.** inactive

**Q.** Which growth inhibition call does the source give for O=C(C[C@@H]1CC[C@H]2[C@@H](COC[C@@H](O)CN2C(=O)c2cnccn2)O1)N1CCN(c2ccccc2)CC1 here?
**A.** inactive

**Q.** Which growth inhibition call does the source give for CO[C@@H]1CN(C)C(=O)c2cc(NS(C)(=O)=O)ccc2OC[C@@H](C)N(C(=O)c2ccc3c(c2)OCO3)C[C@H]1C here?
**A.** inactive

**Q.** How did the growth inhibition call turn out when C[C@@H]1CN([C@H](C)CO)C(=O)c2cc(C#CC3(O)CCCC3)cnc2O[C@H]1CN(C)S(=O)(=O)c1ccc(F)cc1 was run?
**A.** inactive

**Q.** How did the growth inhibition call turn out when C[C@@H]1CCCCO[C@H](CN(C)S(=O)(=O)c2ccc(F)cc2)[C@H](C)CN([C@H](C)CO)C(=O)c2cc(NS(=O)(=O)c3ccc(Cl)cc3)ccc2O1 was run?
**A.** inactive

**Q.** With C[C@@H](O)C#Cc1cnc2c(c1)C(=O)N([C@@H](C)CO)C[C@H](C)[C@H](CN(C)C(=O)Nc1ccc(C(F)(F)F)cc1)O2 as the compound, how does the growth inhibition call read?
**A.** inactive

**Q.** With CCCNC(=O)N1C[C@@H](O)COC[C@@H]2O[C@@H](CC(=O)N3CCOCC3)CC[C@H]21 as the compound, how does the growth inhibition call read?
**A.** inactive

**Q.** Which growth inhibition call does the source give for C[C@H]1CN([C@@H](C)CO)C(=O)c2cccc(NC(=O)Nc3ccccc3)c2O[C@@H]1CN(C)S(C)(=O)=O here?
**A.** inactive

**Q.** How did the growth inhibition call turn out when N[C@@H](C(=O)O)c1ccc(C(=O)O)c(O)c1 was run?
**A.** inactive

**Q.** How did the growth inhibition call turn out when Cc1c(-c2ccc(C(N)=O)c3[nH]c4cc(C(C)(C)O)ccc4c23)cccc1-n1cnc2ccccc2c1=O was run?
**A.** inactive

**Q.** C[C@@H]1CCCCO[C@H](CN(C)S(=O)(=O)c2ccc(Cl)cc2)[C@@H](C)CN([C@@H](C)CO)C(=O)c2cc(NC(=O)Nc3ccc4c(c3)OCO4)ccc2O1 was tested. Which growth inhibition call did it give?
**A.** inactive

From the antibiotic and cytotoxicity screens of Wong et al. (2023)
